One molecule from patent publication US20250018020A1 (ALTOR BIOSCIENCE, published 2025) can be followed below.

In the test the target is IL-18/IL-15RαSu/Fc fusion protein (human). The test is described as follows: co-expression in CHO cells. From the text:
The IL-18/IL-15RαSu/Fc and IL-12/IL-15N72D constructs were cloned into expression vectors as described previously (U.S. Pat. No. 8,507,222, at Example 1, incorporated herein by reference), and the expression vectors were transfected into CHO cells. Co-expression of the two constructs in CHO cells allowed for formation and secretion of the soluble IL-12/IL-15N72D:IL-18/IL-15RαSu/Fc fusion protein complex (referred to as hIL12/IL18/TxM), which can be purified by Protein A affinity and other chromatography methods.

B1: IL-12/IL-15N72D fusion protein (other)
chain: IWELKKDVYVVELDWYPDAPGEMVVLTCDTPEEDGITWTLDQSSEVLGSGKTLTIQVKEFGDAGQYTCHKGGEVLSHSLLLLHKKEDGIWSTDILKDQKEPKNKTFLRCEAKNYSGRFTCWWLTTISTDLTFSVKSSRGSSDPQGVTCGAATLSAERVRGDNKEYEYSVECQEDSACPAAEESLPIEVMVDAVHKLKYENYTSSFFIRDIIKPDPPKNLQLKPLKNSRQVEVSWEYPDTWSTPHSYFSLTFCVQVQGKSKREKKDRVFTDKTSATVICRKNASISVRAQDRYYSSSWSEWASVPCSGGGGSGGGGSGGGGSRNLPVATPDPGMFPCLHHSQNLLRAVSNMLQKARQTLEFYPCTSEEIDHEDITKDKTSTVEACLPLELTKNESCLNSRETSFITNGSCLASRKTSFMMALCLSSIYEDLKMYQVEFKTMNAKLLMDPKRQIFLDQNMLAVIDELMQALNFNSETVPQKSSLEEPDFYKTKIKLCILLHAFRIRAVTIDRVMSYLNAS[in this place about 120 residues]
notes: Secreted from CHO cells
Consider B1, for which the binding result was “binds”.
